Data on 17 compounds can be found in PubChem BioAssay AID1745853 (National Center for Advancing Translational Sciences (NCATS), 2022).

SMILES strings stand for the structures. Where “and” joins values, the source holds several entries; their conditions need not be identical. Equal values may be shown once. This is one part of the list. The main result of the screen is listed elsewhere. These columns were measured beside it and carry no call.

Holding throughout (experiment): Primary Screen for Target Class Profiling of Small Molecule Inhibitors of Methyltransferases
Assay [1] has as its target Glycine N-methyltransferase (Homo sapiens) (UniProt Q14749). The settings on record: purified enzyme, MTase-Glo SAH luminescence; measured here: GNMT inhibition; at 40 µM; stronger effect = lower value. The method, boiled down:
(§1)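 Each enzyme was assayed with SAM and its substrate. SAH formation detected by MTase-Glo luminescence; single-point 40 uM screen[…].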

Assay [2] deals with Guanidinoacetate N-methyltransferase (Homo sapiens) (UniProt Q14353). The conditions noted are these: purified enzyme, MTase-Glo SAH luminescence; measured here: GAMT inhibition; at 40 µM; stronger effect = lower value. The method, boiled down:
as §1

In assay [3] the target is Histamine N-methyltransferase (Homo sapiens) (UniProt P50135). The settings on record: purified enzyme, MTase-Glo SAH luminescence; measured here: HNMT inhibition; at 40 µM; stronger effect = lower value. The method, boiled down:
as §1

For assay [4], the target named is Nicotinamide N-methyltransferase (Homo sapiens) (UniProt P40261). The conditions noted are these: purified enzyme, MTase-Glo SAH luminescence; measured here: NNMT inhibition; at 40 µM; stronger effect = lower value. An outline of the steps: as §1
Assay [5] addresses Phenylethanolamine N-methyltransferase (Homo sapiens) (UniProt P11086). The settings on record: purified enzyme, MTase-Glo SAH luminescence; measured here: PNMT inhibition; at 40 µM; stronger effect = lower value. The method, boiled down: as §1
% is scaled to controls: 0 for no effect and ±100 for the full control effect.

`C=CCc1ccc(O[C@@H]2O[C@H](CO[C@@H]3O[C@@H](C)[C@H](O)[C@@H](O)[C@H]3O)[C@@H](O)[C@H](O)[C@H]2O)cc1`: the activity change, negative = inhibition in assay [1] was 2.46%; in assay [2], 3.59%; in assay [3], 5.58%; in assay [4] it was -6.68%; in assay [5], -2.47%.

For the compound `CCOC(=O)c1cc2n(n1)CC(C)(C(=O)NC1CCCCC1)N(c1ccc(C)c(F)c1)C2=O` (stereo not drawn), the activity change, negative = inhibition is 3.98% in assay [1]; -0.874% in assay [2]; 7.92% in assay [3]; 9.71% in assay [4]; 1.64% in assay [5].

`COc1cnc(-n2cnc(C)n2)c2[nH]cc(C(=O)C(=O)N3CCN(C(=O)c4ccccc4)CC3)c12`: the activity change, negative = inhibition in assay [1] was 1.51%; in assay [2], 6.83%; in assay [3] it was 10%; in assay [4], -15.7%; in assay [5] it was 4.2%.

For `COc1ccc(C(=O)N2CCOCCNC(=O)CC2)c(OC)c1`, the activity change, negative = inhibition in assay [1] is -7.2%; in assay [2], -11.3%; in assay [3], -2.51%; in assay [4], -14.5%; in assay [5] it was -8.1%.

In the case of `CCOCCCNC(=O)N1CC2CN(CCOC)CC(C1)O2`, the activity change, negative = inhibition in assay [1] is -0.163%; in assay [2], -2.9%; in assay [3], 1.16%; in assay [4], -4.99%; in assay [5], -18.9%.

For the compound `CC(C)N(CCC(=O)c1ccc2ccccc2c1)Cc1ccccc1`, the activity change, negative = inhibition is -88.1% and -8.92% in assay [1]; 6.04% and 1.43% in assay [2]; 0.739% and 11.3% in assay [3]; -5.26% and -12.1% in assay [4]; 2.89% and -0.03% in assay [5].

`CCCc1nc(C(=O)N[C@H]2COC[C@H]2Cc2cc(C)no2)cs1`: the activity change, negative = inhibition in assay [1] is 0.704%; in assay [2], 0.297%; in assay [3], 3.25%; in assay [4], -0.52%; in assay [5], 0.142%.

Turning to `c1ccc2[nH]c([C@H]3CCN(CC4CCCCC4)C3)nc2c1`, the activity change, negative = inhibition in assay [1] was -9.17%; in assay [2], -5.3%; in assay [3], -35.7%; in assay [4], -22.1%; in assay [5], -2.3%.

Take `COc1ccc(CNC(=O)CCc2nnc3n(CC(C)C)c(=O)c4ccccc4n23)cc1`: the activity change, negative = inhibition in assay [1] was -1.83%; in assay [2], 19.3%; in assay [3], 9.54%; in assay [4], 3.48%; in assay [5], 0.035%.

As to `Cc1ccc(C)c(N2CCN(S(=O)(=O)c3cc4[nH]c(=O)[nH]c4cc3Br)CC2)c1`, the activity change, negative = inhibition in assay [1] stood at 12%; in assay [2], 0.725%; in assay [3] it was 10.6%; in assay [4] it was 3.9%; in assay [5], 6.28%.

Regarding `COc1ccc2cc3n(c2c1)CC(C)(C(=O)NC1CCCC1)N(CCc1ccccc1)C3=O` (stereo not drawn), the activity change, negative = inhibition in assay [1] is -0.803%; in assay [2] it was 3.89%; in assay [3], 2.69%; in assay [4] it was -4.14%; in assay [5], -4.2%.

Consider `Cc1ccc(NC(=O)Cn2nc3n(CCC(C)C)c(=O)c4ccc(C(=O)NCC(C)C)cc4n3c2=O)cc1`, for which the activity change, negative = inhibition was 0.462% in assay [1]; 2.25% in assay [2]; 0.013% in assay [3]; -3.56% in assay [4]; -4.43% in assay [5].

Take `COc1c2cc(c(O)c1OC)-c1cc(ccc1O)CCC(O)CCCC2` (stereo not drawn): the activity change, negative = inhibition in assay [1] is 0%; in assay [2], 4.47%; in assay [3], 5.67%; in assay [4], -8.27%; in assay [5], 1.25%.

Regarding `Cc1ccccc1NC(=O)Cn1nc2n(CC(C)C)c(=O)c3ccc(C(=O)NC(C)C)cc3n2c1=O`, the activity change, negative = inhibition in assay [1] was 0.707%; in assay [2], 4.25%; in assay [3] it was 0.978%; in assay [4], -13.6%; in assay [5], -6.29%.

Regarding `COCC(=O)N1CC(C(=O)O)C2(CCOCC2)C1` (stereo not drawn), the activity change, negative = inhibition is -1.54% in assay [1]; -2.53% in assay [2]; -0.121% in assay [3]; -5.22% in assay [4]; -0.972% in assay [5].

On to `O=c1cc(-c2ccccc2)oc2ccc(O)cc12`, for which the activity change, negative = inhibition in assay [2] is -20.8%; in assay [4], -36.4%; in assay [5], -19.8%.

For the compound `CCCn1c(=O)c2ccc(C(=O)NC3CCCC3)cc2n2c(=O)n(CC(=O)Nc3ccc(C)cc3)nc12`, the activity change, negative = inhibition in assay [1] worked out at 2.6%; in assay [2] it was 0%; in assay [3], 4.01%; in assay [4] it was 3.45%; in assay [5], 2.81%.
